# Experimental data from PubChem BioAssay (Tox21).
# Values joined by “and” are separate entries in the source; they are usually repeats but may differ in a detail not shown here. Identical values can stand only once. The shares of active, inactive and inconclusive entries below differ from those in the screen. For part of these data: Potencies of inconclusive entries are doubtful fits and often do not repeat. Some structures have more than one record in an assay (separate samples or runs), and their calls can disagree. Active and inactive are the calls of the source. Unless noted, calls come from the whole dose curve; as a rule, active = well fitted curve in the direction sought with a large enough effect in the repeat runs; inconclusive = weak or mixed curves; inactive = no such curve, though single readings can be large; an effect the other way counts as inactive or inconclusive. Square brackets hold non-standard residues; d marks the D form. Peptide text beside a SMILES is read from it. pGlu = O=C1CC[C@@H](C(=O)O)N1; Thz = O=C(O)[C@@H]1CSCN1
# Molecular target: Glucocorticoid receptor (Homo sapiens) (UniProt P04150)
# Test: qHTS assay to identify small molecule agonists of the glucocorticoid receptor (GR) signaling pathway (AID 720691; active = well fitted activation curve with a large enough effect in the signal ratio in the repeat runs, not every such curve was filed as active; inconclusive = weak or mixed curves, or effect the other way; inactive = no such curve, though single readings can be large or run the other way; the % refers to the signal ratio; note: potency is the fitted concentration of half-maximal effect)
# Conditions: GR-bla HeLa, beta-lactamase reporter ratio, 18 h; activation: at 62.4 µM (top of the series) unless noted
# Outline: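 Measures GR pathway activation through a GRE-beta-lactamase reporter stably integrated in HeLa cells, with 18 h compound treatment at 37 C and fluorescence detection using a FRET substrate.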
# % is set by controls: 0 for no effect and ±100 for the full control effect; tags give direction and shape of the fitted curve or compound fluorescence and quenching.
# UniProt P04150, sequence (P04150 whole entry, looked up): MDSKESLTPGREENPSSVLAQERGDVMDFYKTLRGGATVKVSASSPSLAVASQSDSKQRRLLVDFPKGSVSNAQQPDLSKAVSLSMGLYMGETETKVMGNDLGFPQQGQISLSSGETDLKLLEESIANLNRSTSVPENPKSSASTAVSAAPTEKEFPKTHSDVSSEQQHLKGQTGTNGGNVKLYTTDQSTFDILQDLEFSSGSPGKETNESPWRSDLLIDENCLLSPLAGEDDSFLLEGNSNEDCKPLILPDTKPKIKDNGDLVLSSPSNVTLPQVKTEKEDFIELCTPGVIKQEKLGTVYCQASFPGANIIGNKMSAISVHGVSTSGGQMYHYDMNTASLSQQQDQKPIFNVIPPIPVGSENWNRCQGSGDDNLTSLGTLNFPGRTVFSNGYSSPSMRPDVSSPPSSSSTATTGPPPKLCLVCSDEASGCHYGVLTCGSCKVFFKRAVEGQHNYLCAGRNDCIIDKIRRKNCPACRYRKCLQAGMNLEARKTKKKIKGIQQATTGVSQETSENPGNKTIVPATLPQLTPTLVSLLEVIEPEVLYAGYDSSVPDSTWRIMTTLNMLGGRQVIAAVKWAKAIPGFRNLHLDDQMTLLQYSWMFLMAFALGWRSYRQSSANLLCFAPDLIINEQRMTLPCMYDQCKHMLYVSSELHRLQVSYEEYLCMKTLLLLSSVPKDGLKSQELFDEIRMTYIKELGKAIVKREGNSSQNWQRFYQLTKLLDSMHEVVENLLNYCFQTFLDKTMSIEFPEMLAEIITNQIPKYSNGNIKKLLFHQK
Structure (SMILES),activation,Potency
O=C(O)[C@H]1CN(C/C=C/P(=O)(O)O)CCN1,inactive: 1.67%,–
C/C(=C(/CCO)SSCC1CCCO1)N(C=O)Cc1cnc(C)nc1N (stereo not given),–,active: 21.3 µM
CS(=O)(=O)OCC(O)C(O)COS(C)(=O)=O (stereo not given),inactive: -0.221%,–
CC(C)C[C@@H](NC(=O)[C@@H](O)[C@H](N)Cc1ccccc1)C(=O)O,–,inconclusive: 21.3 µM [activator]

# Molecular target: Glucocorticoid receptor (Homo sapiens) (UniProt P04150)
# Test: qHTS assay to identify small molecule antagonists of the glucocorticoid receptor (GR) signaling pathway (AID 720692; active = well fitted inhibition curve with a large enough effect in the signal ratio in the repeat runs, not every such curve was filed as active; inconclusive = weak or mixed curves, or effect the other way; inactive = no such curve, though single readings can be large or run the other way; the % refers to the signal ratio; note: potency is the fitted concentration of half-maximal effect)
# Conditions: GR-bla HeLa, beta-lactamase FRET ratio, dexamethasone-stimulated, 18 h; activity change, negative = inhibition: at 58.5 µM (top of the series) unless noted
# Outline: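 Tox21 10K library screened in concentration-response for blockade of dexamethasone (5 nM final)-induced GRE-bla reporter activity in HeLa cells; 18 h treatment, fluorescence read.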
Structure (SMILES),"activity change, negative = inhibition",Potency
CC(=O)Oc1cc(C)c(OC(C)=O)c2ccccc12,inconclusive: 15.6%,–
O=C(O)COc1ccc(C(=O)c2cccs2)c(Cl)c1Cl,inconclusive: -24.9%,–
C[C@@H]1O[C@@H](OC[C@H]2O[C@@H](Oc3c(-c4ccc(OCCO)c(OCCO)c4)oc4cc(OCCO)cc(O)c4c3=O)[C@H](O)[C@@H](O)[C@@H]2O)[C@H](O)[C@H](O)[C@H]1O,inactive: -3.23%,–
CN[C@@H]1[C@H](O[C@H]2[C@H](O[C@H]3[C@H](O)[C@@H](O)[C@H](N=C(N)N)[C@@H](O)[C@@H]3N=C(N)N)O[C@@H](C)[C@]2(O)C=O)O[C@@H](CO)[C@H](O)[C@H]1O,inconclusive: -0.934%,–
C/C(=C(/CCO)SSCC1CCCO1)N(C=O)Cc1cnc(C)nc1N (stereo not given),–,inconclusive: 26.8 µM [activator]
CC(C)C[C@@H](NC(=O)[C@@H](O)[C@H](N)Cc1ccccc1)C(=O)O,–,"inconclusive: 4.77 µM [activator, full curve]"

# Tested on: not listed separately
# Test: qHTS assay for identifying genotoxic compounds that show differential cytotoxicity against isogenic chicken DT40 cell lines with known DNA damage response pathways - Rev3 mutant cell line (AID 743014); note: nearly all actives have a fitted effect of over 55% in size; note: potency is the fitted concentration of half-maximal effect
# Conditions: chicken DT40 Rev3-/- viability, CellTiter-Glo, 40 h; activity, negative = cytotoxicity: at 68.4 µM (top of the series) unless noted
row,Structure (SMILES),Potency
1,O=C(O)COc1ccc(C(=O)c2cccs2)c(Cl)c1Cl,inactive
2,C[C@@H]1O[C@@H](OC[C@H]2O[C@@H](Oc3c(-c4ccc(OCCO)c(OCCO)c4)oc4cc(OCCO)cc(O)c4c3=O)[C@H](O)[C@@H](O)[C@@H]2O)[C@H](O)[C@H](O)[C@H]1O,"inconclusive: 18.8 µM [rising, partial curve, poor fit]"
3,CN[C@@H]1[C@H](O[C@H]2[C@H](O[C@H]3[C@H](O)[C@@H](O)[C@H](N=C(N)N)[C@@H](O)[C@@H]3N=C(N)N)O[C@@H](C)[C@]2(O)C=O)O[C@@H](CO)[C@H](O)[C@H]1O,"inconclusive: 29.8 µM [rising, partial curve, poor fit]"
4,O=C(O)[C@H]1CN(C/C=C/P(=O)(O)O)CCN1,"inconclusive: 26.6 µM [rising, partial curve, poor fit]"
5,C/C(=C(/CCO)SSCC1CCCO1)N(C=O)Cc1cnc(C)nc1N (stereo not given),inconclusive: 33.5 µM [cytotoxic] and active: 23.7 µM
6,CC(C)C[C@@H](NC(=O)[C@@H](O)[C@H](N)Cc1ccccc1)C(=O)O,"inconclusive: 18.8 µM [rising, partial curve, poor fit]"

# Tested on: not listed separately
# Test: qHTS assay to identify small molecule antagonists of the androgen receptor (AR) signaling pathway - cell viability counter screen (AID 743033; note: nearly all actives have a fitted effect of over 45% in size)
# Conditions: AR-bla HEK293 viability, CellTiter-Glo luminescence, 16 h; activity change, negative = cytotoxicity: at 58.5 µM (top of the series) unless noted
Structure (SMILES),Potency,"activity change, negative = cytotoxicity"
C[N+](C)(C)CCOP(=O)(O)OP(=O)([O-])OC[C@H]1O[C@@H](n2ccc(N)nc2=O)[C@H](O)[C@@H]1O,inactive,–
CC[N+](CC)(CC)CCC(O)(c1ccccc1)C1CCCCC1 (stereo not given),–,inactive: 11.1% [at 27 µM]
CS(=O)(=O)OCC(O)C(O)COS(C)(=O)=O (stereo not given),–,inactive: 2.82%

# Molecular target: Androgen receptor (Homo sapiens) (UniProt P10275)
# Test: qHTS assay to identify small molecule antagonists of the androgen receptor (AR) signaling pathway (AID 743035; active = well fitted inhibition curve with a large enough effect in the signal ratio in the repeat runs, not every such curve was filed as active; inconclusive = weak or mixed curves, or effect the other way; inactive = no such curve, though single readings can be large or run the other way; the % refers to the signal ratio)
# Conditions: HEK293 AR-UAS-bla, R1881-stimulated, beta-lactamase FRET, 16 h; activity change, negative = inhibition: at 58.5 µM (top of the series) unless noted
# Outline: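 R1881 agonist challenge of a HEK293 UAS-beta-lactamase AR reporter line in the presence of compound (16 h, 37C); signal taken as FRET fluorescence after 2 h with LiveBLAzer B/G substrate at room temperature.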
# UniProt P10275, sequence (P10275 whole entry, looked up): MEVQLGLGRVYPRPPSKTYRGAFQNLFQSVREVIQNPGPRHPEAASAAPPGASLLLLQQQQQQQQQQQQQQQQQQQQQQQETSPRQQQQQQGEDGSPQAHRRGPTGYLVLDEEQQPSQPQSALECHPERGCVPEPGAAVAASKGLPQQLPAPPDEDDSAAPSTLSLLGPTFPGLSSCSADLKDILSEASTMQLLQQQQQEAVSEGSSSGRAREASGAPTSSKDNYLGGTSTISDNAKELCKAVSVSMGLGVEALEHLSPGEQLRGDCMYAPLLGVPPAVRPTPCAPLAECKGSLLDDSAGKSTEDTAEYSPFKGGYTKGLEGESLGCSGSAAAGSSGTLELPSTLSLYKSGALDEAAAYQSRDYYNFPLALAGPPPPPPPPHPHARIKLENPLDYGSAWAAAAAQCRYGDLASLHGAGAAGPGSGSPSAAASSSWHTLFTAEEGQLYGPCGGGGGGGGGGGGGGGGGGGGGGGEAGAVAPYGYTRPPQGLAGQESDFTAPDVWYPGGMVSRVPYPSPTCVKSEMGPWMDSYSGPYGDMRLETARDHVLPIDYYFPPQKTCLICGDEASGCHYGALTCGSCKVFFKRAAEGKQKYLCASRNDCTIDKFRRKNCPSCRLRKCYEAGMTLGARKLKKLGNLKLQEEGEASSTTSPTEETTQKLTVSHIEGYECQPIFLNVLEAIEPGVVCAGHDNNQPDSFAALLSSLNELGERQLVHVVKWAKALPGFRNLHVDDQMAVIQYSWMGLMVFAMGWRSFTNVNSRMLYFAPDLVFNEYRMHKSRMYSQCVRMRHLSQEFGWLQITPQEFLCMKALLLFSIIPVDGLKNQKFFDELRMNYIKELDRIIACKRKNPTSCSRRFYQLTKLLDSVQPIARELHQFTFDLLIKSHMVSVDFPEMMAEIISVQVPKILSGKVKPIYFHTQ
row,Structure (SMILES),"activity change, negative = inhibition"
1,O=C(O)COc1ccc(C(=O)c2cccs2)c(Cl)c1Cl,inconclusive: -11.9%
2,C[C@@H]1O[C@@H](OC[C@H]2O[C@@H](Oc3c(-c4ccc(OCCO)c(OCCO)c4)oc4cc(OCCO)cc(O)c4c3=O)[C@H](O)[C@@H](O)[C@@H]2O)[C@H](O)[C@H](O)[C@H]1O,inactive: 21.3%
3,Cc1cc(=O)c(C(=O)N[C@@H](C(=O)N[C@@H]2C(=O)N3C(C(=O)O)=C(CSc4nnnn4C)CS[C@H]23)c2ccc(O)cc2)c[nH]1,inactive: 6.95%
4,NC(=O)c1ccc[n+]([C@@H]2O[C@H](COP(=O)([O-])OP(=O)(O)OC[C@H]3O[C@@H](n4cnc5c(N)ncnc54)[C@H](O)[C@@H]3O)[C@@H](O)[C@H]2O)c1,inconclusive: -4.38% [at 27 µM]
5,CN[C@@H]1[C@H](O[C@H]2[C@H](O[C@H]3[C@H](O)[C@@H](O)[C@H](N=C(N)N)[C@@H](O)[C@@H]3N=C(N)N)O[C@@H](C)[C@]2(O)CO)O[C@@H](CO)[C@H](O)[C@H]1O,inactive: -4.08%

# Molecular target: Androgen receptor (Homo sapiens) (UniProt P10275)
# Test: qHTS assay to identify small molecule agonists of the androgen receptor (AR) signaling pathway (AID 743036; active = well fitted activation curve with a large enough effect in the signal ratio in the repeat runs, with a control signal flat, not every such curve was filed as active; inconclusive = weak or mixed curves, or effect the other way; inactive = no such curve, though single readings can be large or run the other way; the % refers to the signal ratio; note: potency is the fitted concentration of half-maximal effect)
# Conditions: HEK293 AR-UAS-bla GripTite, beta-lactamase FRET ratio, 16 h; activation: at 62.4 µM (top of the series) unless noted
# Outline: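 Fluorescence from a beta-lactamase FRET substrate served as read-out in AR-UAS-bla GripTite HEK293 cells. Cells were treated with DMSO-dissolved compounds for 16 h at 37C, then with LiveBLAzer B/G substrate for 2 h at room temperature.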
Structure (SMILES),Potency,activation
O=C(O)COc1ccc(C(=O)c2cccs2)c(Cl)c1Cl,"inconclusive: 12 µM [rising, partial curve, poor fit] and inconclusive: 23.9 µM [rising, partial curve, poor fit]",–
O=C1CC[C@@H](C(=O)N2CSC[C@H]2C(=O)O)N1 ([pGlu]-[Thz]-OH),–,inactive: -3.79%
CN1c2c(nc(N)[nH]c2=O)NCC1CNc1ccc(C(=O)NC(CCC(=O)O)C(=O)O)cc1 (stereo not given),"inconclusive: 23.9 µM [activator, single point]",–

# Molecular target: Androgen receptor (Homo sapiens) (UniProt P10275)
# Test: qHTS assay to identify small molecule antagonists of the androgen receptor (AR) signaling pathway using the MDA cell line (AID 743042; note: nearly all actives have a fitted effect of over 55% in size)
# Conditions: MDA-kb2 AR-luc, MMTV luciferase, R1881 antagonist, 16 h; series mostly up to 70.3 µM; activity change, negative = inhibition: at the top concentration
# Outline: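 MDA-kb2 cells (human breast carcinoma, stably carrying an MMTV-luciferase reporter responsive to AR and GR) were plated at 3,000 cells/well and preincubated 5 hr at 37C, then given compound plus R1881 agonist for 16 h. ONE-Glo luminescence was read.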
row,Structure (SMILES),"activity change, negative = inhibition"
1,Cc1cc(=O)c(C(=O)N[C@@H](C(=O)N[C@@H]2C(=O)N3C(C(=O)O)=C(CSc4nnnn4C)CS[C@H]23)c2ccc(O)cc2)c[nH]1,inactive: 8.42%
2,CC1(C)S[C@@H]2[C@H](NC(=O)C(C(=O)Oc3ccc4c(c3)CCC4)c3ccccc3)C(=O)N2[C@H]1C(=O)O (stereo not given in full),inactive: 12.6%
3,CN[C@@H]1[C@H](O[C@H]2[C@H](O[C@H]3[C@H](O)[C@@H](O)[C@H](N=C(N)N)[C@@H](O)[C@@H]3N=C(N)N)O[C@@H](C)[C@]2(O)CO)O[C@@H](CO)[C@H](O)[C@H]1O,inactive: -3.09%
